According to the supplement of paper PMC12067230:
The data scatter; read single values as rough.

experiment: amyloid nucleation score relative to library mode (yeast Sup35 reporter selection) (log enrichment difference); higher = more amyloid nucleation; sequences are the first 22 residues of the Bri2 peptide extended by up to 12 random residues; conditions: random library (experiment): 1;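 active = nucleation score significantly above 0 at FDR 0.05; inactive = not significantly above 0 or absent from output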
Protocol: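 Random C-terminal extensions of the 22-aa Bri2 peptide by 12 NNK codons; premature stops give shorter extensions. Peptides were fused to the Sup35 nucleation domain in S. cerevisiae [psi-pin-] and selected on -ADE-URA plates for 7 d at 30 °C. The nucleation score is log(output/input), centred to the mode of each of 3 independent libraries (1 input, 3 technical output replicates), with duplicates merged. Sequences absent from the output ('random_non_nuc') were imputed with the library mode value, so they are given as censored (<). Nucleators are scores significantly >0 at FDR 0.05.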
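Further: [psi-pin-] Saccharomyces cerevisiae expressing SupN fusions, induced by 100 µM Cu2SO4, selected 7 d at 30 °C without adenine and uracil, scored by deep sequencing of output versus input.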

Sequence | amyloid nucleation score
EASNCFAIRHFENKFAVETLICRMAG | inactive
EASNCFAIRHFENKFAVETLICPCLDLFVMTTVV | inactive
EASNCFAIRHFENKFAVETLICGMSS | inactive
EASNCFAIRHFENKFAVETLICHCQISAIRLSSV | 4.56
EASNCFAIRHFENKFAVETLICNSM | 2.13
EASNCFAIRHFENKFAVETLICCLYDVFLSRKVC | 0.693
EASNCFAIRHFENKFAVETLICAAP | inactive
EASNCFAIRHFENKFAVETLICRCPMVFHLYLLE | inactive
EASNCFAIRHFENKFAVETLICLTMMLC | inactive
EASNCFAIRHFENKFAVETLICRGSGCGWNRFRL | 1.78
EASNCFAIRHFENKFAVETLICKMLQYIENVP | 4.09
EASNCFAIRHFENKFAVETLICFSILREGRASRR | 6.29
EASNCFAIRHFENKFAVETLICLSTECTLCRYSG | 7.94
EASNCFAIRHFENKFAVETLICPWG | inactive
EASNCFAIRHFENKFAVETLICGVYGRMFRYTKR | inactive
EASNCFAIRHFENKFAVETLICQMWFSLAGTALA | inactive
EASNCFAIRHFENKFAVETLICCRG | inactive
EASNCFAIRHFENKFAVETLICKHGTHVEKLSAG | -0.826
EASNCFAIRHFENKFAVETLICVAIRAPADWLMC | 4.87
EASNCFAIRHFENKFAVETLICIPCFALEVVHNG | 6.63
EASNCFAIRHFENKFAVETLICGRGRARKFAVG | -0.338
EASNCFAIRHFENKFAVETLICLGDTWLAQCCSL | 6.18
EASNCFAIRHFENKFAVETLICLVEGYSLVASW | inactive

Sequence | amyloid nucleation score
EASNCFAIRHFENKFAVETLICVASRSLRGFMCR | inactive
EASNCFAIRHFENKFAVETLICGYEFSSRTYVGC | inactive
EASNCFAIRHFENKFAVETLICRDNCDDGLVGPL | inactive
EASNCFAIRHFENKFAVETLICRYGRQLRSVAVC | inactive
EASNCFAIRHFENKFAVETLICTSALRGCTSRGW | inactive
EASNCFAIRHFENKFAVETLICTYVVLRESVKSD | 4.86
EASNCFAIRHFENKFAVETLICLECVVFWSMYAA | inactive
EASNCFAIRHFENKFAVETLICDVTAKSEHMFTA | inactive
EASNCFAIRHFENKFAVETLICHYEESFSCRDAS | inactive
EASNCFAIRHFENKFAVETLICPVVVRFRSFEEA | inactive
EASNCFAIRHFENKFAVETLICRVRCESMRGGRG | inactive
EASNCFAIRHFENKFAVETLICCFMGGRSVCVPG | 3.79
EASNCFAIRHFENKFAVETLICPAWSVLRSHYEM | inactive
EASNCFAIRHFENKFAVETLICVDYKVLGSTTVH | inactive
EASNCFAIRHFENKFAVETLICWHLYNYF | 2.51
EASNCFAIRHFENKFAVETLICLNWSLGAGRGVM | 0.6
EASNCFAIRHFENKFAVETLICVSSSVVFVRQGP | 2.46
EASNCFAIRHFENKFAVETLICVFCMAKAVPGEL | 5.95
EASNCFAIRHFENKFAVETLICKVQQTRWHRWRA | inactive
EASNCFAIRHFENKFAVETLICLRDRCMSSCSLS | -0.317
EASNCFAIRHFENKFAVETLICDVGGSDW | inactive
EASNCFAIRHFENKFAVETLICECGHTDADLGTW | 0.609
EASNCFAIRHFENKFAVETLICTRVGCSWVRAAW | 0.928

same assay, conditions: random library (experiment): 2

Sequence | amyloid nucleation score
EASNCFAIRHFENKFAVETLICFIVNDQ | 8.97
EASNCFAIRHFENKFAVETLICEYIWRRHNCLVI | inactive
EASNCFAIRHFENKFAVETLICFLEFSRRKTVGW | inactive
EASNCFAIRHFENKFAVETLICLRIRKLAYYWTG | inactive
EASNCFAIRHFENKFAVETLICCAKSFKRFFLWV | inactive
EASNCFAIRHFENKFAVETLICNRTSAEDTWGPS | inactive
EASNCFAIRHFENKFAVETLICLNWLCYKWLWQF | inactive
EASNCFAIRHFENKFAVETLICCNCISISWFYDA | 8.3
EASNCFAIRHFENKFAVETLICDVIGCMVCGSAI | 7.68
EASNCFAIRHFENKFAVETLICDNIEETMYVVCM | inactive
EASNCFAIRHFENKFAVETLICNLWRCNYLICYL | inactive
EASNCFAIRHFENKFAVETLICEHRCWYDRDIVL | inactive
EASNCFAIRHFENKFAVETLICFCRCLMYGCSHL | inactive
EASNCFAIRHFENKFAVETLICMCGCNYMCMLW | inactive
EASNCFAIRHFENKFAVETLICDIVMLLRPRPDP | inactive
EASNCFAIRHFENKFAVETLICRLECSRKMIFQV | 1.4
EASNCFAIRHFENKFAVETLICVIVTMSPEVYVC | inactive
EASNCFAIRHFENKFAVETLICCHYMNGMGATFR | 6.29
EASNCFAIRHFENKFAVETLICGMVGFFKSRRVG | inactive
EASNCFAIRHFENKFAVETLICFITSLDRVVYDM | inactive

Sequence | amyloid nucleation score
EASNCFAIRHFENKFAVETLICMIFGWLILPDFW | 0.693
EASNCFAIRHFENKFAVETLICIVCVTVDALHGR | 1.37
EASNCFAIRHFENKFAVETLICFCNNVAI | 7.64
EASNCFAIRHFENKFAVETLICNRVTVKCVNFWT | 1.36
EASNCFAIRHFENKFAVETLICIADFERSTHGYK | 2.29
EASNCFAIRHFENKFAVETLICRFPGR | -0.104
EASNCFAIRHFENKFAVETLICIWEI | 3.53
EASNCFAIRHFENKFAVETLICAVISSMGLHIKW | 1.06
EASNCFAIRHFENKFAVETLICFTNPLLLREGVR | inactive
EASNCFAIRHFENKFAVETLICRNFRVTAAGTCL | inactive
EASNCFAIRHFENKFAVETLICDWSVFTSAYLIQ | inactive
EASNCFAIRHFENKFAVETLICRLLDVS | inactive
EASNCFAIRHFENKFAVETLICTLFRLASFSHFH | inactive
EASNCFAIRHFENKFAVETLICVTFVFSLCMCEA | inactive
EASNCFAIRHFENKFAVETLICFCVSLFNVGMIS | inactive
EASNCFAIRHFENKFAVETLICDCFSR | 5.38
EASNCFAIRHFENKFAVETLICYLNVC | 6.97
EASNCFAIRHFENKFAVETLICLMYT | inactive
EASNCFAIRHFENKFAVETLICIVS | 7.34
EASNCFAIRHFENKFAVETLICDDRSHDLCVIG | inactive

same assay, conditions: random library (experiment): 3

Sequence | amyloid nucleation score
EASNCFAIRHFENKFAVETLICVNYGFCALCGLA | 6.78
EASNCFAIRHFENKFAVETLICMYKVARWQYRYV | inactive
EASNCFAIRHFENKFAVETLICCGMLTWVCAVHS | inactive
EASNCFAIRHFENKFAVETLICDKLIASRLWRVG | 0.702
EASNCFAIRHFENKFAVETLICQRYS | inactive
EASNCFAIRHFENKFAVETLICQIATLWSSPTGA | inactive
EASNCFAIRHFENKFAVETLICKVGDPGRCKDAS | inactive
EASNCFAIRHFENKFAVETLICPAHWLGDANRLR | inactive
EASNCFAIRHFENKFAVETLICVMGICGGPGVRV | inactive
EASNCFAIRHFENKFAVETLICLGA | inactive
EASNCFAIRHFENKFAVETLICVLARLWAPGGVA | inactive
EASNCFAIRHFENKFAVETLICASERKSLWCFPG | 1.96
EASNCFAIRHFENKFAVETLICFYSFCLGVKEQG | inactive
EASNCFAIRHFENKFAVETLICARHASVASSVLG | inactive
EASNCFAIRHFENKFAVETLICPSELM | 0.607
EASNCFAIRHFENKFAVETLICMRTCVVCPGGCV | inactive
EASNCFAIRHFENKFAVETLICNSNIVEYYCHIW | 4.7
EASNCFAIRHFENKFAVETLICLCYEQKFTGSLM | 2.26
EASNCFAIRHFENKFAVETLICQTCWTVWHLFLS | inactive
EASNCFAIRHFENKFAVETLICYSLFILAFRLSW | inactive
EASNCFAIRHFENKFAVETLICGRSSSLMTTRCM | inactive
EASNCFAIRHFENKFAVETLICFALKHRMHLNTC | inactive
EASNCFAIRHFENKFAVETLICMYPTCNNISVMY | 6.5
EASNCFAIRHFENKFAVETLICLTVMDLFHIGAK | 5.44
EASNCFAIRHFENKFAVETLICRCMCGLVASRLA | inactive
EASNCFAIRHFENKFAVETLICFECLGLLRNKSC | inactive
EASNCFAIRHFENKFAVETLICMMVSSCSYSWKV | inactive
EASNCFAIRHFENKFAVETLICAKRSEILAWCLR | inactive
